Experimental data: the supplement of paper PMC10338343
± gives the standard deviation. The entries are a selection whose mix differs from that of the whole data set.

These sequences were tested on MIWI (PIWIL1) piRISC loaded with piRNA #1 (30 nt) (assay: pre-steady-state target cleavage rate (min^-1); MIWI and MILI are mouse PIWI proteins and EfPiwi is from a freshwater sponge; tags in brackets are library labels; higher = faster piRNA-guided slicing of the target). Conditions: guide: piRNA #1 5'p-UGAGGUAGUAGGUUGUAUAGUAUCCAGAGG; auxiliary factor: 500 nM mouse GTSF1.
In short: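 A transcribed, DNA-blocked target RNA library […] was incubated at 33 °C for 0–8 or 0–960 min with 1 nM active affinity-purified piRISC carrying one synthetic guide, in HEPES–potassium acetate buffer with or without 500 nM GTSF1 partner protein. Uncleaved targets were then sequenced and normalised to depth and to weakly complementary targets. Data from three trials were pooled, with k3 capped at 0.0001 min^-1, and a burst-and-steady-state fit yielded the pre-steady-state cleavage rate.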
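Also: 1 nM active piRISC with 0.1 nM target library at 33 °C single turnover.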

Q: Which “pre-steady-state target cleavage rate” value does the source give for GGUCUGCAUACUAUAGAACCUACUACCUCA here?
A: The value was 1.29 ± 0.081.

Q: With GGAGACGAUACUAGACAACCUACUACCUCA as the sequence, how does the “pre-steady-state target cleavage rate” value read?
A: The value was 1.49 ± 0.087.

Q: How did the “pre-steady-state target cleavage rate” value turn out when GGACUGGAUACUAUACAACGAUCUACCUCA was run?
A: The value was less than 0.0001.

Q: Which “pre-steady-state target cleavage rate” value does the source give for GCUCAGGAUACUAUACAAGCUACUACCUCA here?
A: Its value is 1 ± 0.04.

Q: GGACUGGUUACUUUACAACCUACUACCUCA was tested. Which “pre-steady-state target cleavage rate” value did it give?
A: The value was 1.23 ± 0.14.

Q: Which “pre-steady-state target cleavage rate” value does the source give for CCUCUCCUUACUAUACAACCUACUACCUCA here?
A: The value was 1.96 ± 0.13.

Q: Which “pre-steady-state target cleavage rate” value does the source give for GGAGAGGAUACUAUACAAACCUACUACCUCA here?
A: Its value is 0.00367 ± 0.0033.

Q: With GGAGUGCAUACUAAACAACCUACUACCUCA as the sequence, how does the “pre-steady-state target cleavage rate” value read?
A: The value was 1.26 ± 0.099.

Q: How did the “pre-steady-state target cleavage rate” value turn out when GGUCUGGAUACUUUACUACCUACUACCUCA was run?
A: Its value is 1.09 ± 0.091.

Q: GGAGAGGAUACUAAACAACCUUCUACCUCA was tested. Which “pre-steady-state target cleavage rate” value did it give?
A: The value was 0.484 ± 0.025.

Q: How did the “pre-steady-state target cleavage rate” value turn out when GGUCAGGAUACUAUACAACCUACUUCCUCA was run?
A: The value was 0.341 ± 0.061.

Q: With GGAGACCUUACUAAACAACCUAGUACCUCA as the sequence, how does the “pre-steady-state target cleavage rate” value read?
A: The value was 0.198 ± 0.027.

Q: For CCUGUGGAUACUUUACAACCUACUACCUCA, which “pre-steady-state target cleavage rate” value is on record?
A: Its value is 1.82 ± 0.14.

Q: With GGAGACCUAUGAUAUGUUCCUACAUCCUCA as the sequence, how does the “pre-steady-state target cleavage rate” value read?
A: Its value is less than 0.0001.

Q: Which “pre-steady-state target cleavage rate” value does the source give for GGAGACCUAUCUACACAACCUACUACCUCA here?
A: The value was 0.396 ± 0.04.

Q: GGAGACCUAUGAUAAGUACCUACUACCUCA was tested. Which “pre-steady-state target cleavage rate” value did it give?
A: Its value is less than 0.0001.

Q: Which “pre-steady-state target cleavage rate” value does the source give for GGAGUGGUUACUUUACAACCUACUACCUCA here?
A: Its value is 1.39 ± 0.11.

Q: For GGAGACCAUACUUUUCAACCUACUACCUCA, which “pre-steady-state target cleavage rate” value is on record?
A: The value was 0.327 ± 0.044.

Q: GGAGAGGAUACUAUACAACCUACUAUCUCA was tested. Which “pre-steady-state target cleavage rate” value did it give?
A: The value was 1.42 ± 0.1.

Q: Which “pre-steady-state target cleavage rate” value does the source give for GGAGACCUUACUUUACAACGUACUACCUCA here?
A: Its value is 0.237 ± 0.035.

Q: How did the “pre-steady-state target cleavage rate” value turn out when GGACUGGAUACUAUACAACCUAACUACCUCA was run?
A: Its value is 0.0167 ± 0.0032.

Q: Which “pre-steady-state target cleavage rate” value does the source give for GGUCUGGAUACAUAACAACCUACUACCUCA here?
A: Its value is 0.696 ± 0.1.

Q: How did the “pre-steady-state target cleavage rate” value turn out when GGAGAGGACUACUAUACAACCUACUACCUCA was run?
A: Its value is 1.58 ± 0.11.

Q: For GCUCUGGAUACUAUACAACCUAUACCUCA, which “pre-steady-state target cleavage rate” value is on record?
A: The value was 0.00931 ± 0.0037.

Q: For GGACUGGAUACUAUACAACCUACUGACCUCA, which “pre-steady-state target cleavage rate” value is on record?
A: Its value is 0.486 ± 0.053.

Q: For GGUCAGGAUACUAUACAAGCUACUACCUCA, which “pre-steady-state target cleavage rate” value is on record?
A: Its value is 0.728 ± 0.035.

Q: Which “pre-steady-state target cleavage rate” value does the source give for GGAGAGGAUACUAUACAACGUACAACCUCA here?
A: Its value is 0.147 ± 0.032.

Q: With CCUCUGGAUACAUACAACCUACUACCUCA as the sequence, how does the “pre-steady-state target cleavage rate” value read?
A: The value was 1.65 ± 0.13.

Q: Which “pre-steady-state target cleavage rate” value does the source give for GGAGAGAAUACUAUACAACCUACUACCUCA here?
A: The value was 1.79 ± 0.1.

Q: How did the “pre-steady-state target cleavage rate” value turn out when GGACUGGAUACUAAACAACGUACUACCUCA was run?
A: Its value is 0.846 ± 0.075.

Q: For GCUUUGGAUACUAUACAACCUACUACCUCA, which “pre-steady-state target cleavage rate” value is on record?
A: Its value is 1.91 ± 0.11.

Q: With GGAGACCAUACUAUACAACCUACAAGCUCA as the sequence, how does the “pre-steady-state target cleavage rate” value read?
A: The value was 0.138 ± 0.026.

Q: GCUCUGGAUACUAUACAACCUUCAACCUCA was tested. Which “pre-steady-state target cleavage rate” value did it give?
A: The value was 0.321 ± 0.029.

Q: GGACUGGAUACUUACAACCUACUACCUCA was tested. Which “pre-steady-state target cleavage rate” value did it give?
A: The value was 0.994 ± 0.14.

Q: With GGUGUGGAUACUAUACAUCCUACUACCUCA as the sequence, how does the “pre-steady-state target cleavage rate” value read?
A: The value was 1.27 ± 0.054.

Q: For GGACUGGAUAGUAUAGAACCUACUACCUCA, which “pre-steady-state target cleavage rate” value is on record?
A: Its value is 0.983 ± 0.069.

Q: GGAGACCUUACUAUACAACCUACUACCUUCA was tested. Which “pre-steady-state target cleavage rate” value did it give?
A: Its value is 1.24 ± 0.086.

Q: For GCUCUGGAUACUAUAGAACCUACUACGUCA, which “pre-steady-state target cleavage rate” value is on record?
A: Its value is 0.53 ± 0.059.

Q: With GCUCUGGUUACUAUACAACCUACUACCACA as the sequence, how does the “pre-steady-state target cleavage rate” value read?
A: The value was 2.3 ± 0.24.

Q: With GGAGACCUAACAUAUACAACCUACUACCUCA as the sequence, how does the “pre-steady-state target cleavage rate” value read?
A: The value was 0.188 ± 0.047.
